PubChem BioAssay AID588549 (Broad Institute, 2011)
In all, about 360,000 compounds went through this assay and about 780 (0.22%) were called active. This list was built around the results that the source calls inconclusive (neither active nor inactive); the mix of calls is not that of the screen. Rule as the data show it: active = inhibition above about 8.5% (passing the limit was not always enough); inconclusive = no clear call, values can overlap the other calls.

These molecules were tested on Mycobacterium tuberculosis FadD28 fatty-acid-AMP ligase (assay: inhibitors of FadD28 bisubstrate probe binding, primary screen, biochemical, fluorescence polarization, single point (AID 588549)). Conditions: at 12.5 µM, hits give high values.
Cc1cccc(OCC(=O)N2CCN(C(=O)Cc3ccccc3)CC2)c1 was tested, and the inhibition was inconclusive: 6.59%. With O=C(O)CCC(=O)NC1CCCCC1 the inhibition was inconclusive: 4.8%. In the case of CC(C)=NNc1cnnc2ccc([N+](=O)[O-])cc12, the inhibition was inactive: 0.871%. With COc1ccc(NC(=S)NC(=O)c2ccccc2Cl)cc1 the inhibition was inactive: -3.79%. With Cn1c(O)c(/C=N/c2ccccn2)c(=O)n(C)c1=O the inhibition was inactive: -4.77%. For Oc1c(Cl)cc(Cl)c(Cl)c1Cc1c(O)c(Cl)cc(Cl)c1Cl, the inhibition was active: 65.8%. For O=C(O)CC/C(=C\c1ccc(N2CCCC2)c([N+](=O)[O-])c1)c1nc2ccccc2s1, the inhibition was inconclusive: 7.96%. With N#Cc1ccc(NCCc2ccccn2)c([N+](=O)[O-])c1 the inhibition was inconclusive: 12.2%. For CC(C)CCNC(=S)Nc1ccc2nc3n(c(=O)c2c1)CCCCC3, the inhibition was inconclusive: 6.06%. For O=C(O)c1ccc(N/N=C/c2cc(Br)cs2)cc1, the inhibition was inconclusive: 7.26%. COc1ccc(OC)c(-n2c(C)ccc2-c2ccc(S(C)(=O)=O)cc2)c1 was tested, and the inhibition was inactive: 0.139%. CCN(CC)c1nc(N)c2c(N)n(-c3ccccc3C)c(=S)c(C#N)c2c1C#N was tested, and the inhibition was active: 8.26%. In the case of COc1ccc(CN2C(=O)C(CC(=O)NCCCN(C)C)CC(C(=O)N(C)C)=C2C)cc1 (stereo not given), the inhibition was inactive: 0.678%. For O=C(O)CCc1nn2cc(-c3ccccc3)nc2[nH]c1=O, the inhibition was inactive: -0.0655%. For N#Cc1c(SCC(=O)Nc2nc3ccccc3s2)sc2c(O)cc(=O)[nH]c12, the inhibition was active: 12.1%. For Cn1nnnc1NCc1cccc(Cl)c1, the inhibition was inconclusive: 6.21%. CCCCn1c(NS(=O)(=O)c2ccccc2)c(S(=O)(=O)c2ccc(C)cc2)c2nc3ccccc3nc21 was tested, and the inhibition was inconclusive: 5.79%. With COc1cccc(NC(=O)CCC2CCN(C(=O)c3ccc(C(C)=O)s3)CC2)c1 the inhibition was inactive: -3.96%. For CCOc1cc(/C=C2\C(=O)N(c3nc(-c4ccc(Br)cc4)cs3)N=C2c2ccccc2)ccc1O, the inhibition was active: 26.7%. For COc1ccc(C(=O)NCc2ccc(Cl)cc2)cc1S(=O)(=O)N1CCCC1, the inhibition was active: 39.8%. With CCOC(=O)C1Nc2ccc(C(=O)O)cc2C2C=CCC12 (stereo not given) the inhibition was active: 20.5%. For COc1ccc(OC)c(-n2c(-c3cc(-c4ccco4)[nH]n3)n[nH]c2=S)c1, the inhibition was inconclusive: 6.49%. In the case of COc1cc(N=Nc2cccc(S(N)(=O)=O)c2)c2ccccc2c1N, the inhibition was active: 9.66%. O=C(CNC(=S)N(Cc1ccccc1)Cc1cccnc1)N1CCOCC1 was tested, and the inhibition was inconclusive: 6.2%. For COc1ccc2cc3cc(C(=O)NCc4ccco4)oc3nc2c1, the inhibition was inactive: -4.49%.
